Laboratory results published in the supplement of paper PMC7826260.
Some of the results follow. The data describe in vitro nicking of single-stranded DNA by Rep domains for 1 h at 37 °C with 3 µM enzyme; only the middle of the 90-letter strands is printed. A value is the log2 ratio of uncut reads to the pool without enzyme; strong cutting gives strongly negative numbers. There is no active / inactive call. Because reads are shares of a total, they shift together; values above 0 arise when much of the pool is cut.

Key:
Assay in all cases: uncleaved DNA left, log2 of reads against the no-enzyme library (log2 ratio); higher = less cleavage (more negative = more Rep cleavage of the k-mer); sequences stand for … in CTCGTCCG…ACCGGAGA
[1] = system: T1, Rep nickase domain of Muscovy duck circovirus
T1 sequence (Rep 1-111, printed without the tag): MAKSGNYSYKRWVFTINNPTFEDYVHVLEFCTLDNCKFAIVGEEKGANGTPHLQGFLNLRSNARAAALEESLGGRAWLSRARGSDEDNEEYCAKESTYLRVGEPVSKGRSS
Description: (§1)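 A pool of 90-nt single-stranded DNAs with seven random bases just before the constant AC of the nick site (name = the seven bases) was cut by 3 µM recombinant His6-SUMO-tagged Rep nickase domain (300 nM DNA, 50 mM HEPES pH 8.0, 50 mM NaCl, 1 mM MnCl2, 1 h, 37 °C, three replicates). Uncut DNA was amplified and sequenced.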

[2] = system: T2, Rep nickase domain of banana bunchy top virus
T2 sequence (Rep 1-94, printed without the tag): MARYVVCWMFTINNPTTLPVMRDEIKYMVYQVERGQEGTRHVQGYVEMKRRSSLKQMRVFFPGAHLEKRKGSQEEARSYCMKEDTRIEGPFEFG
Description: as §1

[3] = system: T3, Rep nickase domain of cabbage leaf curl virus
T3 sequence (Rep 1-116, printed without the tag): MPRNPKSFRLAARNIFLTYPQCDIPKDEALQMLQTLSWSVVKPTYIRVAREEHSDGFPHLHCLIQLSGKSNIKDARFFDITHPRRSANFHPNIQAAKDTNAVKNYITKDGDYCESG
Description: as §1

[4] = system: T4, Rep nickase domain of chickpea chlorotic dwarf virus
T4 sequence (Rep 1-124, printed without the tag): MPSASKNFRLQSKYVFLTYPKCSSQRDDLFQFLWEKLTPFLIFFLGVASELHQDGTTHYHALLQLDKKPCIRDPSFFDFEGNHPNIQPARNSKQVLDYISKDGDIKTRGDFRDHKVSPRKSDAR
Description: as §1

[5] = system: T5, Rep nickase domain of faba bean necrotic yellows virus
T5 sequence (Rep 1-98, printed without the tag): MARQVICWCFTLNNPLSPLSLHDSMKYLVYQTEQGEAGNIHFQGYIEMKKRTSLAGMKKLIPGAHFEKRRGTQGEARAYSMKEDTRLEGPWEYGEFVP
Description: as §1

[6] = system: T6, Rep nickase domain of maize striate mosaic virus
T6 sequence (Rep 1-117, printed without the tag): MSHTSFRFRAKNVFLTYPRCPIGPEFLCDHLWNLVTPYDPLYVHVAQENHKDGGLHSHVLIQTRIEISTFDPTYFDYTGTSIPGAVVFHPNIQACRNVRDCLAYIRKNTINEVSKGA
Description: as §1

[7] = system: T7, Rep nickase domain of porcine circovirus 2
T7 sequence (Rep 2-116, printed without the tag): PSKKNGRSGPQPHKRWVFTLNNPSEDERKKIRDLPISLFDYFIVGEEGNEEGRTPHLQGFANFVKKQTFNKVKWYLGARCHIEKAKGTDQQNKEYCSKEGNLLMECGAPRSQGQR
Description: as §1

[8] = system: T8, Rep nickase domain of tomato golden mosaic virus
T8 sequence (Rep 1-124, printed without the tag): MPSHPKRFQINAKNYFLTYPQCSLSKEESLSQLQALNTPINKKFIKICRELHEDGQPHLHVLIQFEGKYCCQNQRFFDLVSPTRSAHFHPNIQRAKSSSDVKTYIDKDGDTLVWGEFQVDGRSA
Description: as §1

[9] = system: T9, Rep nickase domain of tomato yellow leaf curl virus
T9 sequence (Rep 1-136, printed without the tag): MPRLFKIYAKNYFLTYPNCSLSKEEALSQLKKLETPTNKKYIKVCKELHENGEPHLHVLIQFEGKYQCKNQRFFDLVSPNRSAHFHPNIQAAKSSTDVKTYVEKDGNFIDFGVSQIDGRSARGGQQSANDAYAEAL
Description: as §1

[10] = system: T10, Rep nickase domain of wheat dwarf virus
T10 sequence (Rep 1-137, printed without the tag): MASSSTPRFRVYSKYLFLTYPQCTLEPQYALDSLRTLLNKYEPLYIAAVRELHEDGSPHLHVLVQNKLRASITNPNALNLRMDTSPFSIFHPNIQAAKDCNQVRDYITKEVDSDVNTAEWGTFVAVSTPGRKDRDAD
Description: as §1

Sequence | uncleaved DNA left (log2) [1] | uncleaved DNA left (log2) [2] | uncleaved DNA left (log2) [3] | uncleaved DNA left (log2) [4] | uncleaved DNA left (log2) [5] | uncleaved DNA left (log2) [6] | uncleaved DNA left (log2) [7] | uncleaved DNA left (log2) [8] | uncleaved DNA left (log2) [9] | uncleaved DNA left (log2) [10]
TCTTCAA | 0.0698 | 0.0341 | 0.111 | -0.0426 | -0.0185 | -0.217 | 0.0514 | -0.00947 | 0.0858 | 0.0566
GTCTTCT | -0.0845 | 0.0784 | 0.385 | 0.642 | -0.00233 | 1.66 | -0.376 | 0.0629 | 0.109 | 0.0359
TTTTTCT | -3.19 | -0.184 | -0.0532 | -2.25 | -0.133 | -0.619 | -2.78 | -0.195 | -0.0356 | -0.241
GAAATAT | 0.0744 | 0.0451 | -0.229 | -1.29 | -0.0206 | 1.1 | -0.163 | 0.0294 | 0.0696 | -0.0347
GACGGCC | 0.00376 | 0.0953 | 0.182 | 0.589 | -0.0336 | 0.33 | 0.0834 | 0.0349 | 0.0487 | 0.153
GGGAGTC | 0.0517 | 0.0387 | 0.834 | 1.87 | 0.00593 | 2.18 | 0.181 | 0.0118 | 0.0184 | 0.0142
AGGGACT | 0.00967 | 0.0766 | 0.441 | 1.57 | 0.0384 | 2.08 | 0.226 | 0.0288 | -0.0516 | 0.181
CACGCGT | -0.0913 | -0.181 | -0.93 | -1 | -0.0389 | -0.967 | -0.0316 | -0.0411 | 0.0372 | -0.233
GGCCGGT | 0.133 | 0.0967 | 0.493 | 0.987 | -0.00301 | 1.57 | 0.149 | -0.0156 | 0.04 | 0.106
TGAGGGG | 0.0143 | -0.0549 | 0.286 | 0.661 | 0.123 | 0.574 | 0.257 | -0.0244 | -0.0584 | 0.0429
GATGCTT | -0.105 | -0.454 | 0.057 | -0.915 | -0.103 | 0.317 | -0.43 | 0.00493 | -0.0752 | -0.238
ACAGCGG | -0.0297 | -0.099 | -0.758 | -0.498 | 0.0313 | -0.917 | 0.169 | -0.00734 | 0.0185 | -0.134
CACAGGC | 0.171 | 0.0408 | -0.107 | -0.182 | 0.114 | -0.889 | 0.246 | 0.0369 | 0.0535 | -0.00721
CGATACT | -3.3 | -0.143 | -0.4 | -2.79 | 0.0229 | -0.468 | -3.27 | -0.145 | -0.0355 | -0.247
ACGGAGC | -0.0023 | -0.0953 | -0.448 | -0.34 | 0.0164 | -0.762 | 0.0192 | -0.0176 | 0.0223 | -0.146
GGATAAA | 0.0237 | 0.0571 | 0.623 | 1.48 | 0.0499 | 1.93 | 0.251 | 0.121 | 0.0417 | 0.159
GCACTTA | -0.226 | -0.14 | -0.0797 | -0.384 | -0.176 | 0.0316 | -0.19 | -0.0921 | -0.112 | -0.247
CAGCCTT | -0.0256 | -0.119 | -0.301 | -2.16 | 0.0108 | 0.0323 | -2.85 | 0.147 | -0.0194 | -0.0594
TGTAACG | 0.0489 | 0.000346 | -0.554 | -0.873 | 0.00733 | -1.1 | 0.104 | -0.0416 | -0.0603 | -0.0663
GACCTTC | -0.0882 | -0.0829 | 0.174 | 0.512 | 0.0275 | 0.509 | -0.0567 | -0.0575 | -0.0201 | -0.0172
GTGAAAT | 0.235 | 0.237 | 0.499 | 1.31 | 0.124 | 2.01 | 0.225 | 0.193 | 0.233 | 0.262
AACGGTG | 0.00796 | -0.0398 | -0.157 | -0.0567 | -0.0274 | -0.333 | 0.131 | -0.00955 | -0.124 | -0.0768
GAAGCCC | 0.02 | 0.0238 | 0.263 | 0.326 | 0.0635 | 0.288 | -0.00227 | 0.0105 | 0.0524 | 0.0886
ACTCCTA | -0.0128 | -0.0414 | -0.288 | -1.08 | -0.0812 | -0.503 | -0.205 | 0.0387 | -0.0965 | -0.00808
GATCTCT | 0.0745 | 0.00354 | 0.0271 | -1.34 | 0.0268 | 0.903 | -0.263 | 0.0298 | 0.0708 | 0.123
AGCTCGC | 0.0617 | 0.0557 | -0.241 | -0.179 | 0.0146 | -0.709 | -0.0191 | -0.114 | -0.00851 | 0.0546
TTGTTCC | -0.151 | -0.169 | 0.0941 | -0.0174 | -0.0839 | 0.0528 | -0.172 | -0.189 | -0.171 | -0.0892
TCTCGGA | 0.0873 | 0.00935 | 0.193 | 0.898 | 0.0276 | 0.736 | 0.0402 | 0.131 | -0.0295 | 0.0217
GCTAAGT | 0.0229 | -0.0587 | 0.0434 | 0.183 | 0.0519 | -0.315 | -0.0357 | -0.0105 | 0.119 | -0.0659
AAAACGG | 0.0637 | 0.0581 | 0.481 | 1.32 | 0.0858 | 1.31 | 0.162 | 0.208 | -0.0528 | 0.122
